# Measured values published in the supplement of paper PMC8728848.
# This is one part of the list.
# Key:
# Experiment in all cases: glycan array binding signal (z-score within array); higher = stronger binding
# Settings in all cases: glycan notation: IUPAC condensed, linker removed
# [1] = target: Gal(b1-4)GlcNAc(b1-2)Man(a1-3)[Gal(b1-4)GlcNAc(b1-2)Man(a1-6)]Man(b1-4)GlcNAc(b1-4)GlcNAc
# Method in brief: (§1)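 Arrays were curated from the Consortium for Functional Glycomics database, 3228 in total, and kept only where the protein sequence was available. Binding is expressed as a within-array Z-score. This score was averaged across arrays of the same protein sequence at different concentrations or buffers and across linkers, and negative values can be read as non-binding.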
# [2] = target: Gal(b1-4)GlcNAc(b1-2)Man(a1-3)[Gal(b1-4)GlcNAc(b1-2)Man(a1-6)]Man(b1-4)GlcNAc(b1-4)[Fuc(a1-6)]GlcNAc
# Method in brief: as §1
# [3] = target: Gal(b1-4)GlcNAc(b1-2)Man(a1-3)[Gal(b1-4)GlcNAc(b1-2)Man(a1-6)][Gal(b1-4)GlcNAc(b1-4)]Man(b1-4)GlcNAc(b1-4)[Fuc(a1-6)]GlcNAc
# Method in brief: as §1
# [4] = target: Gal(b1-4)GlcNAc(b1-2)Man(a1-3)[Gal(b1-4)GlcNAc(b1-2)Man(a1-6)][GlcNAc(b1-4)]Man(b1-4)GlcNAc(b1-4)[Fuc(a1-6)]GlcNAc
# Method in brief: as §1
# [5] = target: Gal(b1-4)GlcNAc(b1-2)Man(a1-3)[GlcNAc(b1-2)Man(a1-6)]Man(b1-4)GlcNAc(b1-4)GlcNAc
# Method in brief: as §1
# [6] = target: Gal(b1-4)GlcNAc(b1-2)Man(a1-3)[GlcNAc(b1-4)][Gal(b1-4)GlcNAc(b1-2)Man(a1-6)]Man(b1-4)GlcNAc(b1-4)GlcNAc
# Method in brief: as §1
# [7] = target: Gal(b1-4)GlcNAc(b1-2)Man(a1-3)[Man(a1-6)]Man(b1-4)GlcNAc(b1-4)GlcNAc
# Method in brief: as §1
# [8] = target: Gal(b1-4)GlcNAc(b1-2)Man(a1-6)Man(b1-4)GlcNAc(b1-4)GlcNAc
# Method in brief: as §1
# [9] = target: Gal(b1-4)GlcNAc(b1-2)Man(a1-6)[GlcNAc(b1-2)Man(a1-3)]Man(b1-4)GlcNAc(b1-4)GlcNAc
# Method in brief: as §1
# [10] = target: Gal(b1-4)GlcNAc(b1-2)Man(a1-6)[Man(a1-3)]Man(b1-4)GlcNAc(b1-4)GlcNAc
# Method in brief: as §1
# [11] = target: Gal(b1-4)GlcNAc(b1-2)[Gal(b1-4)GlcNAc(b1-4)]Man(a1-3)[Gal(b1-4)GlcNAc(b1-2)Man(a1-6)]Man(b1-4)GlcNAc(b1-4)GlcNAc
# Method in brief: as §1
# [12] = target: Gal(b1-4)GlcNAc(b1-2)[Gal(b1-4)GlcNAc(b1-4)]Man(a1-3)[Gal(b1-4)GlcNAc(b1-2)[Gal(b1-4)GlcNAc(b1-6)]Man(a1-6)]Man(b1-4)GlcNAc(b1-4)GlcNAc
# Method in brief: as §1
# [13] = target: Gal(b1-4)GlcNAc(b1-2)[Gal(b1-4)GlcNAc(b1-4)]Man(a1-3)[GlcNAc(b1-4)][Gal(b1-4)GlcNAc(b1-2)Man(a1-6)]Man(b1-4)GlcNAc(b1-4)GlcNAc
# Method in brief: as §1
# [14] = target: Gal(b1-4)GlcNAc(b1-2)[Gal(b1-4)GlcNAc(b1-4)]Man(a1-3)[GlcNAc(b1-4)][Gal(b1-4)GlcNAc(b1-2)[Gal(b1-4)GlcNAc(b1-6)]Man(a1-6)]Man(b1-4)GlcNAc(b1-4)GlcNAc
# Method in brief: as §1
# [15] = target: Gal(b1-4)GlcNAc(b1-2)[Gal(b1-4)GlcNAc(b1-6)]Man(a1-6)[Gal(b1-4)GlcNAc(b1-2)Man(a1-3)]Man(b1-4)GlcNAc(b1-4)GlcNAc
# Method in brief: as §1
# [16] = target: Gal(b1-4)GlcNAc(b1-2)[Gal(b1-4)GlcNAc(b1-6)]Man(a1-6)[Gal(b1-4)GlcNAc(b1-2)Man(a1-3)]Man(b1-4)GlcNAc(b1-4)[Fuc(a1-6)]GlcNAc
# Method in brief: as §1
# [17] = target: Gal(b1-4)GlcNAc(b1-2)[Gal(b1-4)GlcNAc(b1-6)]Man(a1-6)[GlcNAc(b1-4)][Gal(b1-4)GlcNAc(b1-2)Man(a1-3)]Man(b1-4)GlcNAc(b1-4)GlcNAc
# Method in brief: as §1
# [18] = target: Gal(b1-4)GlcNAc(b1-2)[Gal(b1-4)GlcNAc(b1-6)]Man(a1-6)[GlcNAc(b1-4)][Gal(b1-4)GlcNAc(b1-2)[Gal(b1-4)GlcNAc(b1-4)]Man(a1-3)]Man(b1-4)GlcNAc(b1-4)[Fuc(a1-6)]GlcNAc
# Method in brief: as §1
# [19] = target: Gal(b1-4)GlcNAc(b1-3)Gal(b1-3)GalNAc
# Method in brief: as §1
binder,measurement,setting,value
"Gal 8 (Mus musculus), Q9JL15 (protein) MGGSHHHHHHGMASMLSLNNLQNIIYNPIIPYVGTITEQLKPGSLIVIRGHVPKDSERFQVDFQLGNSLKPRADVAFHFNPRFKRSSCIVCNTLTQEKWGWEEITYDMPFRKEKSFEIVFMVLKNKFQVAVNGRHVLLYAHRISPEQIDTVGIYGKVNIHSIGFRFSSASALPHTLGDLQSMETSALGLTQINRENIQKPGKLQLSLPFEARLNASMGPGRTVVIKGEVNTNARSFNVDLVAGKTRDIALHLNPRLNVKAFVRNSFLQDAWGEEERNITCFPFSSGMYFEMIIYCDVREFKVAINGVHSLEYKHRFKDLSSIDTLSVDGDIRLLDVRSW",glycan array binding signal (z-score),[1],0.201
same,glycan array binding signal (z-score),[2],0.189
same,glycan array binding signal (z-score),[3],0.128
same,glycan array binding signal (z-score),[4],-0.123
same,glycan array binding signal (z-score),[5],-0.043
same,glycan array binding signal (z-score),[6],-0.126
same,glycan array binding signal (z-score),[7],0.172
same,glycan array binding signal (z-score),[8],0.18
same,glycan array binding signal (z-score),[9],-0.108
same,glycan array binding signal (z-score),[10],0.101
same,glycan array binding signal (z-score),[11],0.415
same,glycan array binding signal (z-score),[12],-0.094
same,glycan array binding signal (z-score),[13],0.241
same,glycan array binding signal (z-score),[14],0.292
same,glycan array binding signal (z-score),[15],0.011
same,glycan array binding signal (z-score),[16],0.073
same,glycan array binding signal (z-score),[17],0.011
same,glycan array binding signal (z-score),[18],0.128
same,glycan array binding signal (z-score),[19],0.144
